The other results are listed elsewhere or left out. The full chains were built here from the parent and the listed change. Values near 0.05 are background.
B1: TEV protease; numbered along this chain (parent)
chain: MGESLFKGPRDYNPISSSICHLTNESDGHTTSLYGIGFGPFIITNKHLFRRNNGTLVVQSLHGVFKVKDTTTLQQHLVDGRDMIIIRMPKDFPPFPQKLKFREPQREERICLVTTNFQTKSMSSMVSDTSCTFPSGDGIFWKHWIQTKDGQCGSPLVSTRDGFIVGIHSASNFTNTNNYFTSVPKNFMELLTNQEAQQWVSGWRLNADSVLWGGHKVFMVKPEEPFQPVKEATQL

Variants of: B1
Test: raw area under fraction-flipped curve 0-4 h after induction (AUC4h, not background-subtracted), DNA-recorder readout of cleavage of the substrate (dimensionless); higher = more cleavage of the substrate by the protease variant
Conditions: temperature: 34 °C; time window: 0-4 h after rhamnose induction
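Also: Bxb1 expression induced with 0.2% (w/v) L-rhamnose at OD600 near 0.5, cultures sampled hourly, flipped fraction per protease–substrate barcode pair counted by paired-end Illumina sequencing.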

In the case of V78T, the “area with substrate ENLYFDS” value is reported as 0.167, the “area with substrate ENLYFFS” value is reported as 0.0754 and the “area with substrate ENLYFGS” value is reported as 0.0508. For the same variant, the “area with substrate ENLYFIS” value was 0.0535, the “area with substrate ENLYFMS” value was 0.0656 and the “area with substrate ENLYFPS” value was 0.0282. For the same variant, the “area with substrate ENLYFTS” value was 0.0572 and the “area with substrate ENLYFYS” value was 0.0903.

In the case of M122C, the “area with substrate ENLYFDS” value is reported as 0.0542, the “area with substrate ENLYFFS” value is reported as 0.0738 and the “area with substrate ENLYFHS” value is reported as 0.0501. For the same variant, the “area with substrate ENLYFIS” value was 0.0592, the “area with substrate ENLYFKS” value was 0.0691 and the “area with substrate ENLYFLS” value was 0.0649. For the same variant, the “area with substrate ENLYFMS” value was 0.058, the “area with substrate ENLYFNS” value was 0.0605 and the “area with substrate ENLYFPS” value was 0.052. The “area with substrate ENLYFRS” value was 0.0557, the “area with substrate ENLYFSS” value was 0.0552 and the “area with substrate ENLYFTS” value was 0.0595. For the same variant, the “area with substrate ENLYFVS” value was 0.0645, the “area with substrate ENLYFWS” value was 0.0695 and the “area with substrate ENLYFYS” value was 0.0626.

With M122S the “area with substrate ENLYFES” value was 0.0661, the “area with substrate ENLYFFS” value was 0.0534 and the “area with substrate ENLYFGS” value was 0.0675. For the same variant, the “area with substrate ENLYFIS” value was 0.0283, the “area with substrate ENLYFKS” value was 0.0631 and the “area with substrate ENLYFLS” value was 0.0585. The “area with substrate ENLYFMS” value was 0.0649, the “area with substrate ENLYFNS” value was 0.0567 and the “area with substrate ENLYFPS” value was 0.0793. For the same variant, the “area with substrate ENLYFTS” value was 0.0599 and the “area with substrate ENLYFYS” value was 0.045.

With V58Q the “area with substrate ENLYFDS” value was 0.0527, the “area with substrate ENLYFHS” value was 0.0418 and the “area with substrate ENLYFPS” value was 0.0521. The “area with substrate ENLYFWS” value was 0.048.

With V58E the “area with substrate ENLYFDS” value was 0.0499, the “area with substrate ENLYFHS” value was 0.0415 and the “area with substrate ENLYFIS” value was 0.0464.

With K142C the “area with substrate ENLYFES” value was 0.0718, the “area with substrate ENLYFHS” value was 0.0571 and the “area with substrate ENLYFIS” value was 0.0562. For the same variant, the “area with substrate ENLYFMS” value was 0.0851, the “area with substrate ENLYFNS” value was 0.0747 and the “area with substrate ENLYFPS” value was 0.061. The “area with substrate ENLYFRS” value was 0.058, the “area with substrate ENLYFSS” value was 0.0651 and the “area with substrate ENLYFTS” value was 0.0567. For the same variant, the “area with substrate ENLYFYS” value was 0.063.

In the case of I42T, the “area with substrate ENLYFDS” value is reported as 0.0442, the “area with substrate ENLYFES” value is reported as 0.0415 and the “area with substrate ENLYFFS” value is reported as 0.0586. The “area with substrate ENLYFIS” value was 0.0474, the “area with substrate ENLYFKS” value was 0.0396 and the “area with substrate ENLYFMS” value was 0.0432. For the same variant, the “area with substrate ENLYFNS” value was 0.0551, the “area with substrate ENLYFPS” value was 0.0531 and the “area with substrate ENLYFRS” value was 0.0641. For the same variant, the “area with substrate ENLYFTS” value was 0.0618, the “area with substrate ENLYFVS” value was 0.0459 and the “area with substrate ENLYFWS” value was 0.04. For the same variant, the “area with substrate ENLYFYS” value was 0.0569.

With V57D the “area with substrate ENLYFCS” value was 0.0588, the “area with substrate ENLYFDS” value was 0.0585 and the “area with substrate ENLYFES” value was 0.0828. The “area with substrate ENLYFFS” value was 0.0681, the “area with substrate ENLYFGS” value was 0.0616 and the “area with substrate ENLYFHS” value was 0.0612. For the same variant, the “area with substrate ENLYFIS” value was 0.0609, the “area with substrate ENLYFKS” value was 0.0689 and the “area with substrate ENLYFLS” value was 0.0564. For the same variant, the “area with substrate ENLYFMS” value was 0.0591, the “area with substrate ENLYFNS” value was 0.0628 and the “area with substrate ENLYFPS” value was 0.063. The “area with substrate ENLYFRS” value was 0.0243, the “area with substrate ENLYFTS” value was 0.0513 and the “area with substrate ENLYFVS” value was 0.0331. For the same variant, the “area with substrate ENLYFYS” value was 0.0552.

With I145W the “area with substrate ENLYFDS” value was 0.0461, the “area with substrate ENLYFES” value was 0.057 and the “area with substrate ENLYFFS” value was 0.0566. The “area with substrate ENLYFHS” value was 0.0593, the “area with substrate ENLYFIS” value was 0.0428 and the “area with substrate ENLYFKS” value was 0.0681. For the same variant, the “area with substrate ENLYFLS” value was 0.0537, the “area with substrate ENLYFPS” value was 0.0561 and the “area with substrate ENLYFRS” value was 0.0525. For the same variant, the “area with substrate ENLYFSS” value was 0.0555, the “area with substrate ENLYFTS” value was 0.0529 and the “area with substrate ENLYFVS” value was 0.0589. The “area with substrate ENLYFYS” value was 0.0564.

For T159A, the “area with substrate ENLYFES” value was 0.0579, the “area with substrate ENLYFFS” value was 0.0739 and the “area with substrate ENLYFHS” value was 0.0467. The “area with substrate ENLYFKS” value was 0.0675, the “area with substrate ENLYFLS” value was 0.0521 and the “area with substrate ENLYFMS” value was 0.0593. For the same variant, the “area with substrate ENLYFPS” value was 0.0717 and the “area with substrate ENLYFRS” value was 0.0581.

For Q194V, the “area with substrate ENLYFCS” value was 0.0479, the “area with substrate ENLYFHS” value was 0.052 and the “area with substrate ENLYFIS” value was 0.0563. The “area with substrate ENLYFKS” value was 0.066, the “area with substrate ENLYFMS” value was 0.0652 and the “area with substrate ENLYFNS” value was 0.0447. For the same variant, the “area with substrate ENLYFPS” value was 0.0628, the “area with substrate ENLYFRS” value was 0.0667 and the “area with substrate ENLYFSS” value was 0.0659. For the same variant, the “area with substrate ENLYFTS” value was 0.0449 and the “area with substrate ENLYFWS” value was 0.043.

For T71D, the “area with substrate ENLYFDS” value was 0.0542, the “area with substrate ENLYFES” value was 0.0605 and the “area with substrate ENLYFFS” value was 0.0905. For the same variant, the “area with substrate ENLYFGS” value was 0.0663, the “area with substrate ENLYFMS” value was 0.0613 and the “area with substrate ENLYFPS” value was 0.0661. The “area with substrate ENLYFRS” value was 0.043.

For T71H, the “area with substrate ENLYFES” value was 0.0641, the “area with substrate ENLYFHS” value was 0.0568 and the “area with substrate ENLYFIS” value was 0.0505. The “area with substrate ENLYFPS” value was 0.0665, the “area with substrate ENLYFSS” value was 0.0625 and the “area with substrate ENLYFTS” value was 0.0555. The “area with substrate ENLYFWS” value was 0.062.

With F173G the “area with substrate ENLYFCS” value was 0.0739, the “area with substrate ENLYFES” value was 0.0593 and the “area with substrate ENLYFIS” value was 0.0516. The “area with substrate ENLYFKS” value was 0.059, the “area with substrate ENLYFNS” value was 0.063 and the “area with substrate ENLYFRS” value was 0.0691. The “area with substrate ENLYFVS” value was 0.0322, the “area with substrate ENLYFWS” value was 0.0602 and the “area with substrate ENLYFYS” value was 0.0542.

In the case of K66C, the “area with substrate ENLYFDS” value is reported as 0.0047, the “area with substrate ENLYFFS” value is reported as 0.0683 and the “area with substrate ENLYFIS” value is reported as 0.0518. For the same variant, the “area with substrate ENLYFKS” value was 0.0543, the “area with substrate ENLYFLS” value was 0.0489 and the “area with substrate ENLYFNS” value was 0.0491. For the same variant, the “area with substrate ENLYFPS” value was 0.0608, the “area with substrate ENLYFTS” value was 0.0597 and the “area with substrate ENLYFWS” value was 0.0557. For the same variant, the “area with substrate ENLYFYS” value was 0.0543.

With R51G the “area with substrate ENLYFES” value was 0.0614, the “area with substrate ENLYFFS” value was 0.0645 and the “area with substrate ENLYFIS” value was 0.0633. The “area with substrate ENLYFLS” value was 0.0667, the “area with substrate ENLYFRS” value was 0.0526 and the “area with substrate ENLYFSS” value was 0.054. The “area with substrate ENLYFTS” value was 0.0712.

In the case of E189H, the “area with substrate ENLYFCS” value is reported as 0.0509, the “area with substrate ENLYFES” value is reported as 0.0622 and the “area with substrate ENLYFFS” value is reported as 0.0862. For the same variant, the “area with substrate ENLYFHS” value was 0.0884, the “area with substrate ENLYFIS” value was 0.0595 and the “area with substrate ENLYFMS” value was 0.07. For the same variant, the “area with substrate ENLYFNS” value was 0.0664, the “area with substrate ENLYFPS” value was 0.059 and the “area with substrate ENLYFRS” value was 0.0629. The “area with substrate ENLYFSS” value was 0.0614 and the “area with substrate ENLYFYS” value was 0.0557.

Source: the supplement of paper PMC12217912
